Measured values reported in PubChem BioAssay AID686978 (National Center for Advancing Translational Sciences (NCATS), 2013).
The campaign covered roughly 420,000 compounds. About 64,000 (15%) were called active. The inconclusive results got no clear call from the source; some entries with a clear call stand among them for comparison. Calls follow the shape of the dose curve; as a rule, active = well fitted inhibition curve with a large enough effect; inconclusive = small, poorly fitted or top-dose-only effect; inactive = flat fitted curve, though single readings scatter. Potencies of inconclusive entries are left out as doubtful fits.

Assay: qHTS for Inhibitors of human tyrosyl-DNA phosphodiesterase 1 (TDP1): qHTS in cells in absence of CPT; also: nearly all actives have a fitted effect of over 55% in size
Settings: DT40 Tdp1-/- hTDP1 cells, no CPT, ATP luminescence, 48 h; activity change, negative = growth inhibition: at 46.2 µM (top of the series) unless noted
Outline: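 Chicken DT40 Tdp1-/- cells complemented with human TDP1, screened without camptothecin (DMSO vehicle only), 400 cells/well. Compounds pin-transferred, cells incubated at 37 °C for at least 48 hr. Growth read as ATP-dependent luminescence (CellTiter-Glo, 30 min at RT).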
% is scaled to controls: 0 for no effect and ±100 for the full control effect; potency is read from the fitted curve at half-maximal effect; tags tell the direction and shape of the fitted curve.

| Compound | Potency | activity change, negative = growth inhibition |
| --- | --- | --- |
| Cc1ccsc1C(=O)N1CCC1(C)C(=O)NCc1cccc2ccccc12 (centres undefined) | inconclusive [inhibitor, single point] | – |
| CN(C)c1oc(/C=C/c2ccccc2)nc1C#N | – | inactive: -24.3% |
| COc1ccc(NC(=O)Nc2cccc3[nH]c([C@@H]4O[C@H](CO)[C@@H](O)[C@H](O)[C@H]4O)nc23)cc1OC1CCCC1 | – | inactive: 4.39% |
| COc1ccc(NC(=O)CN(C)C(=O)c2ccc(-c3ccccc3Cl)o2)cc1 | inconclusive [inhibitor, single point] | – |
| COc1ccc(CC(=O)N2CCN(c3cccc(C)c3C)CC2)cc1 | inconclusive [inhibitor, single point] | – |
| Cn1c(CNC(=O)C2CCC(=O)N(CCc3cccc(F)c3)C2)nc2ccccc21 (centres undefined) | inconclusive [inhibitor, single point] | – |
| Cc1ccc(-n2ncc(C(=O)N3CCN(C4CCCCC4)CC3)c2C2CCN(C(=O)OC(C)(C)C)CC2)cc1C | active: 7.31 µM | – |
| OC(c1ccc(F)cc1)c1ncc(-c2ccccc2Cl)[nH]1 (centres undefined) | – | inactive: -24.2% |
| COc1cccc(C(C(=O)NCC2CCCO2)N(C(=O)Cn2nnc3ccccc32)c2ccc(NC(C)=O)cc2)c1OC (centres undefined) | – | inactive: 6% |
| Cc1ccc(S(=O)(=O)N2CCC(C(=O)NCCC3=CCCCC3)CC2)c(C)c1 | inconclusive [inhibitor, single point] | – |
| Cc1ccc(S(=O)(=O)N2[C@@H](c3ccc(Br)cc3)C(C(=O)O)=CC[C@H]2c2ccc(C(C)C)cc2)cc1 | inconclusive [inhibitor, partial curve] | – |
| CC(C)CCN1CCN(Cc2cccn2-c2ccc(Cl)cn2)CC1CCO (centres undefined) | inconclusive [inhibitor, single point] | – |
| O=S(=O)(c1cccnc1)N1CCCC(Nc2ccc(F)c(F)c2)C1 (centres undefined) | inconclusive [inhibitor, single point] | – |
| Cc1ccc(NC(=S)NCCC(c2ccccc2)c2ccccc2)c(C)c1 | active: 16.4 µM | – |
| O=C(O)c1ccc(Sc2nnnn2-c2ccccc2)c([N+](=O)[O-])c1 | – | inactive: -3.83% |
| Cc1cccc(N2CCN(C(=O)CCCn3c(=O)[nH]c4ccsc4c3=O)CC2)c1C | inconclusive [inhibitor, partial curve, poor fit] | – |
| O=C1CC(c2nc3ccccc3n2CCC2CCCCC2)CN1c1ccccc1Cl (centres undefined) | inconclusive [inhibitor, single point] | – |
| CCCC1CCC(c2ccc(C(N)=O)cc2)CC1 (centres undefined) | – | inactive: -1.79% |
| C=C(C)CNC(=S)NNC(=O)CCn1c2ccccc2c2ccccc21 | inconclusive [inhibitor, single point] | – |
| CCCCN(C(=O)Nc1ccc(Cl)cc1)C1CCN(C(C)=O)CC1 | – | inconclusive: -38.1% [inhibitor] |
| Cc1ccc2c(c1)Cc1nc3ccccc3nc1-2 | inconclusive [inhibitor, partial curve] | – |
| COc1ccc(/C=C/C(=O)NC(=S)Nc2ccccc2)cc1OC | – | inactive: -15.1% |
| CC(=O)c1cccc(NC(=O)C2=CC(c3ccc(F)cc3)=NS(=O)(=O)N2C)c1 | inconclusive [inhibitor, single point] | – |

| Compound | Potency | activity change, negative = growth inhibition |
| --- | --- | --- |
| COc1ccccc1CNC(=O)C1(C)CCN1Cc1ccc(OC(F)(F)F)cc1 (centres undefined) | inconclusive [inhibitor, single point] | – |
| CCCCN(C(=O)CSc1nnc(Nc2ccccc2)s1)c1c(N)n(CCC)c(=O)[nH]c1=O | – | inactive: 9.16% |
| COCCN(CCOC)S(=O)(=O)c1ccc(C(=O)Nc2nnc(CSC)o2)cc1 | – | inactive: 21% |
| CCCN(CC(=O)Nc1ccccc1OC)C(=O)c1cnc(Cl)c(Cl)c1 | inconclusive [inhibitor, partial curve] | – |
| O=C(/C=C1\OCc2ccccc21)c1ccccc1 | – | inconclusive: -37.9% [inhibitor] |
| Nc1c(-c2cccc(Cl)c2)cnn1-c1cccc([N+](=O)[O-])c1 | inconclusive [inhibitor, single point] | – |
| O=C(CN1CC(=O)Oc2ccccc21)OCC(=O)c1ccc(F)cc1 | inconclusive [inhibitor, single point] | – |
| NC(=O)c1nsc(C(=O)N(c2ccccc2)C(C(=O)NC2CCCC2)c2ccc3ncccc3c2)c1N (centres undefined) | inconclusive [inhibitor, partial curve] | – |
| Cc1nnc(SCC(=O)NCc2ccccc2)n1-c1ccccc1 | – | inactive: -10.9% |
| COc1ccc(/C=C/C(=O)OCC(=O)N2CCN(S(=O)(=O)c3ccc(C)cc3C)CC2)cc1OC | active: 20.6 µM | – |
| Cc1ccc2onc(CC(=O)N3CCN(c4ccc(Cl)cc4)CC3)c2c1 | inconclusive [inhibitor, single point] | – |
| COc1ccc2[nH]c3c(c2c1)CCN1C(=O)N([C@@H](C)C(=O)NCc2ccccc2OC)C(=O)[C@]31C | inconclusive [inhibitor, single point] | – |
| CCCN1Cc2cccc(C(=O)Nc3ccc(CN4CCCC4)cc3)c2C1=O | active: 23.1 µM | – |
| O=C(Nc1ccc(Cl)cc1)c1cc(S(=O)(=O)N2CCCCC2)ccc1N1CCOCC1 | inconclusive [inhibitor, single point] | – |
| COc1ccc(OC)c(CNC(=O)c2ccc(Sc3ccc(Cl)cc3)c(NC(C)=O)c2)c1 | inconclusive [inhibitor, single point] | – |
| O=C(NCCc1ccccc1)c1ccc(Cn2c(=O)c3cccn3c3cccnc32)cc1 | inconclusive [inhibitor, single point] | – |
| NNc1nc(Nc2ccccc2)nc(N2CCCCC2)n1 | inconclusive [inhibitor, single point] | – |
| Nc1nc2c(nnn2Cc2ccc(Cl)c(Cl)c2)c(=O)[nH]1 | – | inactive: -23.5% |
| COc1ccc(-c2[nH]ncc2CN(C)C(C)c2ccon2)c(OC)c1 (centres undefined) | inconclusive [inhibitor, single point] | – |
| O=C(NC1CCCCC1)c1ccc(CSc2nc3ccncc3n2Cc2ccccc2)cc1 | active: 20.6 µM | – |
| Cc1cc(C)cc(-c2nc(-c3ccncc3)no2)c1 | – | inconclusive: -34.6% [inhibitor] |
| Cc1cc(C(=O)CSc2nnc(N)s2)c(C)n1-c1c(C)n(C)n(-c2ccccc2)c1=O | inconclusive [inhibitor, full curve, poor fit] | – |
| O=C(O)c1ccc(N/N=C/C=C/c2ccccc2[N+](=O)[O-])cc1 | inconclusive [inhibitor, full curve] | – |

| Compound | Potency | activity change, negative = growth inhibition |
| --- | --- | --- |
| CC(NC(=O)c1ccccc1F)c1nnc(SCC(=O)Nc2nnc(C3CC3)s2)n1C (centres undefined) | – | inactive: 8.45% |
| COc1ccc(C(=O)Nc2cc(C)on2)cc1S(=O)(=O)N1CC(c2ccccc2)CC1=O (centres undefined) | – | inactive: -18.7% |
| C[C@@H](NC(=O)C(=O)c1c[nH]c2ccccc12)c1ccccc1 | inconclusive [inhibitor, single point] | – |
| Cc1ccc(C(=O)OCC(=O)NCc2ccc3c(c2)OCO3)s1 | – | inactive: -5.24% |
| Cc1ccc(NC(=O)Cn2c(=O)n(CCCC(=O)NCc3ccc4c(c3)OCO4)c(=O)c3ccccc32)cc1 | inconclusive [inhibitor, single point] | – |
| COCc1cc(S(=O)c2ccc(Cl)cc2)nc(C)n1 (centres undefined) | active: 2.91 µM | – |
| Cc1ccc(N(CC(=O)NCc2ccccc2)C(=O)c2csnn2)c(C)c1 | – | inactive: -13.3% |
| CC(=O)CCc1oc2ccc(C)cc2c1-c1ccc(C)o1 | active: 14.6 µM | – |
| OC(c1ccccn1)(c1ccccn1)c1ccccn1 | inconclusive [inhibitor, single point] | – |
| COc1ccc(NS(=O)(=O)c2cccc(-c3n[nH]c(=S)n3Cc3ccccc3)c2)cc1 | inconclusive [inhibitor, single point] | – |
| N#CC1=C(N)C(C#N)(C#N)[C@H](c2ccsc2)[C@H]2COCC=C12 | inconclusive [inhibitor, partial curve] | – |
| Cc1cc(C)c2c(-n3cccc3)c(NC(=O)OC(C)C)sc2n1 | active: 20.6 µM | – |
| Cc1nc(NC2=NCN(CCCN3CCOCC3)CN2)nc2c(C)cccc12 | active: 16.4 µM | – |
| COc1ccccc1-n1cc(-c2ccc([N+](=O)[O-])cc2)[nH]c1=S | inconclusive [inhibitor, single point] | – |
| C/C(=N\NC(=O)c1ccc(Cl)c(S(=O)(=O)Nc2ccccc2Cl)c1)c1ccncc1 | inconclusive [inhibitor, single point] | – |
| N#Cc1ccccc1NC(=O)CN(Cc1ccccc1)Cc1ccccc1 | inconclusive [inhibitor, single point] | – |
| Cc1ccc(NC(=O)C2CCN(S(=O)(=O)c3ccc4ccccc4c3)CC2)nc1 | inconclusive [inhibitor, single point] | – |
| COc1ccc(NC(=O)CN2C(=O)CSc3ccc(S(=O)(=O)N(C)C)cc32)cc1OC | – | inactive: -16.7% |
| COc1cc(O)cc(OC)c1OC | inconclusive [inhibitor, single point] | – |
| COc1ccccc1C#Cc1ccc2c(=O)c3ccccc3n(C)c2c1 | – | inconclusive: -37.8% [inhibitor] |
| C=C1CCC[C@]2(C)C[C@H]3OC(=O)C(CNC(C)CC)[C@H]3CC12 (some centres undefined) | inconclusive [inhibitor, single point] | – |
| NC(=O)c1ccc(N2CCC(C(N)=O)CC2)c([N+](=O)[O-])c1 | – | inactive: -15.7% |
| Cc1ccc2c(CC(=O)N3CCc4ccccc43)coc2c1 | inconclusive [inhibitor, single point] | – |
